Reference: the supplement of paper PMC11417369
Some of the results follow.

What follows are sequences tested on PfAP2-HC AP2 domain (GST-tagged) (assay: gcPBM binding intensity (ln(normalized median fluorescence intensity)); higher = stronger DNA binding).
Outline: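 The highest Masliner-normalised natural-log median intensity across replicate spots of either probe orientation is reported as binding intensity. GST-tagged P. falciparum DNA-binding domains expressed in E. coli were applied for 1 h to an Agilent 4 × 180k array of primer-extended double-stranded 36-bp intergenic genomic probes plus negative controls, and bound protein was detected with Alexa488 anti-GST antibody and scanned at 488 nm.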

| Sequence | gcPBM binding intensity (ln) |
| --- | --- |
| TTTTCTATATAGTGTTGTACATTATTGTGTAAAAAT [XGTACX_site3223] | 9.69 |
| ATAAAATTGGAGCAAACACACAAGGTTGAAATTAAC [CACACA_site506] | 9.97 |
| ATATTTTATACTTGCACACAAAATATATTAAAATGG [CACACA_site5139] | 9.67 |
| TATATGGTATGTATTACACACATATCACATATATAT [CACACA_site3045] | 10 |
| TGGTAAATTGAGAATCGTACATTAAAAAACATAAAA [XGTACX_site3253] | 9.59 |
| GGAATGGTACATGATACACACACGCACATATAAATA [CACACA_site7581] | 10.1 |
| AAGAAAAAAAAGATAATAATAATAATAATAAAATGA [TGCATGCA_negctrl_site398] | 9.82 |
| ATTTATTAAAAGAAATGTACAGAAAATGTTTGGAAT [XGTACX_site7187] | 9.69 |
| ATTTAATATCACAATATATTTTTTACCCTTATCAGC [CACACA_negctrl_site491] | 9.47 |
| AAAGAATTGTATAAAAGTACATATTTGTTTGTTTTA [XGTACX_site7380] | 9.69 |
| TTTTTTTCATAAATTAGGTAATGTCGCAGGGGGACA [TGCATGCA_negctrl_site556] | 9.42 |
| TAAAAAATAAAATACACACACATATATATATATATA [CACACA_site1323] | 10.1 |
| GAGGGAAAAAATAATCGTACAAAGAAAAAAAAAAAT [XGTACX_site7361] | 9.75 |
| TATATTCTTTTTTTAACACACAAAAAAAATAAAATA [CACACA_site1898] | 9.42 |
| AAAAAAATTAAAGATTGTACTTGATTTTTCATTTTA [XGTACX_site6685] | 9.5 |
| GACTGAACAACATAATGTACATTTATAAGTATATAT [XGTACX_site3813] | 9.74 |
| AGTAGTATGGAGAAAAGTACATAGTATCTGATAACC [XGTACX_site2040] | 9.81 |
| CTTTAATATATTTAAGTGCAAAACTAATATGTAAAG | 9.49 |
| TATATATTATATATATGTACTTATTCATATATATAA [XGTACX_site3860] | 9.49 |
| AAAGAAAAAGAAAAAGAAAAAATAAAATAAAATAAA [CACACA_negctrl_site872] | 9.38 |
| TATTTAAAAACAAAAAGTACTAATATATATTTATAC [XGTACX_site1422] | 9.56 |
| TTGAATTATAAGAATAAACACACAAGCTTAAAAAAA [CACACA_site8318] | 9.71 |
| GAATTATAAATTATAGTGCATAAAATTATGGCATAA [GTGCAC_site9938] | 9.67 |
| TCAAAACATTATTCCATACACACCATACTTTTTAAT [CACACA_site2770] | 9.82 |
